Patent US4710578A, “Isothiuronium salts” (Peremartoni Vegyipari Vallalat, priority 1984, dated 1987)

Test system: Lewis long tumor
Conditions: 5 mg/kg

N-Aminoiminomethyl-S-(1-Chloro-2-Hydroxy-Propyl)-Isothiuronium Bromide [Example 14]
Decrease of number of lung metastasis: 50%
